About 14,000 (4.5%) of roughly 310,000 compounds showed an effect of 50% or more. Effects have a minus sign here. Some of the results follow.
Each molecule was assayed against human ether-à-go-go-related gene (hERG) potassium channel (human, UniProt Q12809) (assay: primary screen, population patch clamp on CHO cells stably expressing hERG).
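Note: peak tail current of the secondary pulse compared with the same well before compound.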

human ether-à-go-go-related gene (hERG) potassium channel, sequence (Q12809 whole entry, looked up): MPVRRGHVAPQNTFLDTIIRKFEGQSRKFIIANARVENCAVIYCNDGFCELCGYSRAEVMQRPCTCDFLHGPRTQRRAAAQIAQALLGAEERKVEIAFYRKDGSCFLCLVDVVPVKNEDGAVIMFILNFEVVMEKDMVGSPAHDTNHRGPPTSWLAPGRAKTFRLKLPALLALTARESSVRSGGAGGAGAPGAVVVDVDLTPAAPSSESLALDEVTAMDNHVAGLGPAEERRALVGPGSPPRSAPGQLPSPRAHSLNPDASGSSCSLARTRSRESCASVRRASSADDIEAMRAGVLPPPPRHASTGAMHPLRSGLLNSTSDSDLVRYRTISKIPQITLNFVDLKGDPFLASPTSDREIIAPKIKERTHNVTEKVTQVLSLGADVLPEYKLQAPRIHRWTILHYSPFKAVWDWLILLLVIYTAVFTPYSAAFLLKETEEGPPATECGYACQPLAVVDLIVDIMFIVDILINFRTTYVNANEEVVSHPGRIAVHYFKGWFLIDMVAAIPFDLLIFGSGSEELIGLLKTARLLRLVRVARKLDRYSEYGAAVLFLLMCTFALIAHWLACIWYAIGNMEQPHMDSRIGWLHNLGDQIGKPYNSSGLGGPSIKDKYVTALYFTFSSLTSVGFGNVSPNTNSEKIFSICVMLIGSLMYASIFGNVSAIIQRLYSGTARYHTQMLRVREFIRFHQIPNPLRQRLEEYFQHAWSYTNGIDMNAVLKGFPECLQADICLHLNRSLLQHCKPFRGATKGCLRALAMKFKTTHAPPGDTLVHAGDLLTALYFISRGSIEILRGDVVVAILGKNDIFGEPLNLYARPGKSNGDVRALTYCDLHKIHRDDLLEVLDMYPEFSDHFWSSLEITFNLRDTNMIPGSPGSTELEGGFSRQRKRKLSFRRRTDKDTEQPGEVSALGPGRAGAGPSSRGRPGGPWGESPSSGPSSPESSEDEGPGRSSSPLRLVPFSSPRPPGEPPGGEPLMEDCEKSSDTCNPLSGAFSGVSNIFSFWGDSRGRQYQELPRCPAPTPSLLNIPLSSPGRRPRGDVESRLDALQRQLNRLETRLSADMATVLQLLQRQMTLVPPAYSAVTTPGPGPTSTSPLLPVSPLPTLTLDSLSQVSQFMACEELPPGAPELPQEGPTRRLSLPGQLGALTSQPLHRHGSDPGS

Row | Compound | hERG current change (%, negative = inhibition) at 10uM
1 | CCCCNC(=O)c1onc(CSc2ccccc2)c1C(=O)O | 8.54%
2 | Cc1nn(C(CC(=O)O)C(=O)O)c(C)c1Br (stereo not shown) | 19.3%
3 | Cc1ccc(NC(=O)c2cc(F)c(F)cc2Cl)nc1 | 16.5%
4 | CCCN(CCC)C(=O)Cn1c(=O)n(CCCC(=O)NCc2ccco2)c(=O)c2sccc21 | -11.7%
5 | O=C(CSc1ncnc2c1nnn2Cc1ccc(F)cc1)NC1CCCC1 | 8.71%
6 | COC(=O)CN(c1ccccc1[N+](=O)[O-])S(=O)(=O)c1ccccc1 | -19.3%
7 | Cc1c(Cl)cccc1NC(=O)CNC(=O)CCS(=O)(=O)c1ccc(F)cc1 | -6.31%
8 | CSc1cccc(NCc2ccc([N+](=O)[O-])cc2)c1 | -10.7%
9 | COCc1cc(=O)[nH]c(Cc2c(Cl)cccc2Cl)n1 | 8.51%
10 | Cl.O=C(O)C1NCCc2ccccc21 (stereo not shown) | -14.2%
11 | CNC(=O)/C(C#N)=C/c1ccc(OCCOc2ccccc2)cc1 | 22.8%
12 | COc1ccc(OC)c(CN2CCN(Cc3cc(OC)c(OC)c(OC)c3)CC2)c1 | 9.45%
13 | CCOC(=O)c1cc(-c2ccccc2)sc1N | 0.819%
14 | COc1cc(OC)cc(C(=O)Nc2cc(-c3cn4cccnc4n3)ccc2C)c1 | 15.9%
15 | Cc1ccc(-c2noc(N=O)c2NO)cc1 | 6.74%
16 | CCOC(=O)C(=CNNc1cccc(Cl)c1)C(=O)OCC | 15.5%
17 | Cn1c(CCNC(=O)c2ccc(F)cc2)nc2ccccc21 | -29.4%
18 | COc1ccc(C2CC(c3cccs3)=NN2C(=O)CSc2nc(=O)n3cc(C)ccc3n2)cc1 (stereo not shown) | -64.8%
19 | Cc1c(C)c2ccc(OC3CCCCC3=O)cc2oc1=O (stereo not shown) | 10.9%
20 | CCOC(=O)Nc1ccc(NC(=O)c2ccccc2F)cc1 | 7.89%

Row | Compound | hERG current change (%, negative = inhibition) at 10uM
21 | COc1ccccc1C(=O)OCCN=C1NS(=O)(=O)c2ccccc21 | -1.89%
22 | COc1ccc(C(CNC(=O)c2ccc(S(=O)(=O)N3CCCC3)cc2)N2CCOCC2)cc1 (stereo not shown) | -1.39%
23 | Cc1nc2scc(C)n2c(=O)c1S(=O)(=O)NC(C)c1ccccc1 (stereo not shown) | 6.37%
24 | CCc1ccc(OCC(=O)O/N=C(\N)c2ccncc2)cc1 | 4.92%
25 | O=C(NCCc1ccc(C(F)(F)F)cc1)c1ccc2c(c1)OCO2 | 6.54%
26 | CCSc1oc(-c2ccco2)nc1S(=O)(=O)c1ccc(F)cc1 | -23.2%
27 | COc1ccc(NC(=O)c2cc(-c3cc(C)c(C)cc3O)n[nH]2)c(OC)c1 | 23.5%
28 | CCCCOc1ccc(CSc2ncn[nH]2)cc1 | -0.564%
29 | CC(NC(=O)c1ccc(Cn2cc([N+](=O)[O-])cn2)o1)c1ccccc1 (stereo not shown) | -14.2%
30 | OC1CCCN(Cc2ccc3ccc4cccc5ccc2c3c45)C1 (stereo not shown) | -4.79%
31 | O=C(Cc1c(Cl)cccc1Cl)Nc1ccncc1Cl | 7.9%
32 | Cc1cc2ccc3ccccc3c2cc1CN(C)C.Cl | -51.9%
33 | COc1c(OC(C)=O)ccc(/C=N\NC(=O)c2ccc(Br)cc2)c1[N+](=O)[O-] | 18.2%
34 | Cc1ccc(SC(=O)c2c([N+](=O)[O-])c(C)nn2C)cc1 | 11.4%
35 | Cc1cccc(C2=N/C(=C/c3cccs3)C(=O)O2)c1 | 20%
36 | Cc1cc2c(cc(C(=O)OCC(=O)NCc3cccs3)n2C(C)C)o1 | 6.81%
37 | COc1cccc(-n2nnnc2SCC(=O)c2ccc(NC(C)=O)cc2)c1 | -17.3%
38 | COc1ccccc1-n1c(SCC(=O)NC2CC2)nc2ccccc2c1=O | -23.1%
39 | COC(=O)c1cc(CNC(=O)CC(C)c2ccccc2)ccc1OC (stereo not shown) | 8.5%
40 | CCOc1ccc(N2C(=O)/C(=C/c3ccco3)C(=O)NC2=S)cc1 | 16.8%

Row | Compound | hERG current change (%, negative = inhibition) at 10uM
41 | Cc1ccccc1NC(=S)/C(=C(\[O-])c1ccc(C)c([N+](=O)[O-])c1)[n+]1ccccc1 | -1.7%
42 | O=C(NC1CCCCCCC1)c1c(O)c2ccccc2[nH]c1=O | 19.4%
43 | CC(=O)c1nn(-c2cccc(C)c2)cc1C(=O)c1cccc(Br)c1 | 18.4%
44 | Nc1ccc([N+](=O)[O-])cc1C(=O)NNC(=O)c1ccco1 | 25.9%
45 | COC(=O)C1CCN(c2cc(=O)n(Cc3ccc(F)cc3)c(=O)[nH]2)CC1 | -12.8%
46 | O=C(/C=C/c1ccccc1)c1ccccn1 | 12.5%
47 | CCCCN(C)S(=O)(=O)c1cc2c3c(c1)CCC(=O)N3CCC2 | -16%
48 | C=CCN1C(=O)/C(=c2\sc3nc(=O)c(Cc4ccc(OC)c(OC)c4)nn3c2=O)c2ccccc21 | 16%
49 | CC(=O)N(Cc1cc(=O)[nH]c2ccccc12)c1cccc(C)c1 | -8.96%
50 | Cc1ccc(NC(=O)CSCc2cc(=O)n3cc(C)sc3n2)c(C)c1 | 7.65%
51 | CCN(CC)C(=O)CSc1nnc([C@@H](NC(=O)OC(C)(C)C)C(C)C)o1 | -7.92%
52 | COc1ccc(-n2c(SCC(=O)Nc3nccs3)nc3sc4c(c3c2=O)CCN(C)C4)cc1 | 1.65%
53 | Cl.NC(N)=Nc1nc2ccc(Br)cc2c(=O)[nH]1 | 2.28%
54 | COc1ccc(NS(=O)(=O)c2cc(NC(=O)CNC(=O)c3cccc(OC)c3)ccc2C)cc1 | 7.88%
55 | O=C(COC(=O)c1ccc(N2CCCC2=O)cc1)c1ccccc1 | 4.94%
56 | CCCCOc1ccc(S(=O)(=O)N2CCCCCC2)cc1 | -18.8%
57 | c1ccc(Cn2ncc3ccccc32)cc1 | 0.449%
58 | CS(=O)(=O)c1ccc(Cl)c(NC(=O)CSC(=S)N2CCCC2)c1 | 14.6%

— paper PMC4336329 (PLoS ONE, 2015)
